# Reference: the supplement of paper PMC8728848
# Some of the results follow.
# B1: F17-L (Escherichia coli) (protein)
# chain: GPDDYVPSQIAVNTSTLPGVVIGPADAHTYPRVIGELAGTSNQYVFNGGAIALMRGKFTPALPKIGSITYTFHQGNSRDSSDFDIYDIGVSGLGIIIGMAGYWPATPLVPINSSGIYIDPVGANTNPNTYNGATASFGARLFVAFVATGRLPNGYITIPTRQLGTILLEAKRTSLNNKGLTAPVMLNGGRIQVQSQTHHHHHH
# What was measured:
# Assay in all cases: glycan array binding signal (z-score within array); higher = stronger binding
# Conditions in all cases: glycan notation: IUPAC condensed, linker removed
# [1] = biological target: Gal(b1-4)GlcNAc(b1-2)[Gal(b1-4)GlcNAc(b1-4)]Man(a1-3)[Gal(b1-4)GlcNAc(b1-2)Man(a1-6)]Man(b1-4)GlcNAc(b1-4)GlcNAc
# In short: (§1)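 The binding signal is a Z-score computed within each array and averaged over linkers. Arrays of the same protein sequence at different concentrations or buffers were also averaged together. Data originate from 3228 arrays in the Consortium for Functional Glycomics database, kept only where the protein sequence was available.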
# [2] = biological target: Gal(b1-4)GlcNAc(b1-2)[Gal(b1-4)GlcNAc(b1-4)]Man(a1-3)[Gal(b1-4)GlcNAc(b1-2)[Gal(b1-4)GlcNAc(b1-6)]Man(a1-6)]Man(b1-4)GlcNAc(b1-4)GlcNAc
# In short: as §1
# [3] = biological target: Gal(b1-4)GlcNAc(b1-2)[Gal(b1-4)GlcNAc(b1-4)]Man(a1-3)[GlcNAc(b1-4)][Gal(b1-4)GlcNAc(b1-2)Man(a1-6)]Man(b1-4)GlcNAc(b1-4)GlcNAc
# In short: as §1
# [4] = biological target: Gal(b1-4)GlcNAc(b1-2)[Gal(b1-4)GlcNAc(b1-4)]Man(a1-3)[GlcNAc(b1-4)][Gal(b1-4)GlcNAc(b1-2)[Gal(b1-4)GlcNAc(b1-6)]Man(a1-6)]Man(b1-4)GlcNAc(b1-4)GlcNAc
# In short: as §1
# [5] = biological target: Gal(b1-4)GlcNAc(b1-2)[Gal(b1-4)GlcNAc(b1-6)]Man(a1-6)[Gal(b1-4)GlcNAc(b1-2)Man(a1-3)]Man(b1-4)GlcNAc(b1-4)GlcNAc
# In short: as §1
# [6] = biological target: Gal(b1-4)GlcNAc(b1-2)[Gal(b1-4)GlcNAc(b1-6)]Man(a1-6)[Gal(b1-4)GlcNAc(b1-2)Man(a1-3)]Man(b1-4)GlcNAc(b1-4)[Fuc(a1-6)]GlcNAc
# In short: as §1
# [7] = biological target: Gal(b1-4)GlcNAc(b1-2)[Gal(b1-4)GlcNAc(b1-6)]Man(a1-6)[GlcNAc(b1-4)][Gal(b1-4)GlcNAc(b1-2)Man(a1-3)]Man(b1-4)GlcNAc(b1-4)GlcNAc
# In short: as §1
# [8] = biological target: Gal(b1-4)GlcNAc(b1-2)[Gal(b1-4)GlcNAc(b1-6)]Man(a1-6)[GlcNAc(b1-4)][Gal(b1-4)GlcNAc(b1-2)[Gal(b1-4)GlcNAc(b1-4)]Man(a1-3)]Man(b1-4)GlcNAc(b1-4)[Fuc(a1-6)]GlcNAc
# In short: as §1
# [9] = biological target: Gal(b1-4)GlcNAc(b1-3)Gal(b1-3)GalNAc
# In short: as §1
# [10] = biological target: Gal(b1-4)GlcNAc(b1-3)Gal(b1-3)GlcNAc
# In short: as §1
# [11] = biological target: Gal(b1-4)GlcNAc(b1-3)Gal(b1-4)Glc
# In short: as §1
# [12] = biological target: Gal(b1-4)GlcNAc(b1-3)Gal(b1-4)GlcNAc
# In short: as §1
# [13] = biological target: Gal(b1-4)GlcNAc(b1-3)Gal(b1-4)GlcNAc(b1-2)Man(a1-3)[Gal(b1-4)GlcNAc(b1-3)Gal(b1-4)GlcNAc(b1-2)Man(a1-6)]Man(b1-4)GlcNAc(b1-4)GlcNAc
# In short: as §1
# [14] = biological target: Gal(b1-4)GlcNAc(b1-3)Gal(b1-4)GlcNAc(b1-2)Man(a1-3)[Gal(b1-4)GlcNAc(b1-3)Gal(b1-4)GlcNAc(b1-2)Man(a1-6)]Man(b1-4)GlcNAc(b1-4)[Fuc(a1-6)]GlcNAc
# In short: as §1
# [15] = biological target: Gal(b1-4)GlcNAc(b1-3)Gal(b1-4)GlcNAc(b1-2)[Gal(b1-4)GlcNAc(b1-3)Gal(b1-4)GlcNAc(b1-6)]Man(a1-6)[Gal(b1-4)GlcNAc(b1-3)Gal(b1-4)GlcNAc(b1-2)Man(a1-3)]Man(b1-4)GlcNAc(b1-4)GlcNAc
# In short: as §1
# [16] = biological target: Gal(b1-4)GlcNAc(b1-3)Gal(b1-4)GlcNAc(b1-2)[Gal(b1-4)GlcNAc(b1-3)Gal(b1-4)GlcNAc(b1-6)]Man(a1-6)[Gal(b1-4)GlcNAc(b1-3)Gal(b1-4)GlcNAc(b1-2)Man(a1-3)]Man(b1-4)GlcNAc(b1-4)[Fuc(a1-6)]GlcNAc
# In short: as §1
# [17] = biological target: Gal(b1-4)GlcNAc(b1-3)Gal(b1-4)GlcNAc(b1-3)Gal(b1-4)GlcNAc
# In short: as §1
# [18] = biological target: Gal(b1-4)GlcNAc(b1-3)Gal(b1-4)GlcNAc(b1-3)Gal(b1-4)GlcNAc(b1-2)Man(a1-3)[Gal(b1-4)GlcNAc(b1-3)Gal(b1-4)GlcNAc(b1-3)Gal(b1-4)GlcNAc(b1-2)Man(a1-6)]Man(b1-4)GlcNAc(b1-4)GlcNAc
# In short: as §1
# [19] = biological target: Gal(b1-4)GlcNAc(b1-3)Gal(b1-4)GlcNAc(b1-3)Gal(b1-4)GlcNAc(b1-2)Man(a1-3)[Gal(b1-4)GlcNAc(b1-3)Gal(b1-4)GlcNAc(b1-3)Gal(b1-4)GlcNAc(b1-2)Man(a1-6)]Man(b1-4)GlcNAc(b1-4)[Fuc(a1-6)]GlcNAc
# In short: as §1
# [20] = biological target: Gal(b1-4)GlcNAc(b1-3)Gal(b1-4)GlcNAc(b1-3)Gal(b1-4)GlcNAc(b1-2)[Gal(b1-4)GlcNAc(b1-3)Gal(b1-4)GlcNAc(b1-3)Gal(b1-4)GlcNAc(b1-6)]Man(a1-6)[Gal(b1-4)GlcNAc(b1-3)Gal(b1-4)GlcNAc(b1-3)Gal(b1-4)GlcNAc(b1-2)Man(a1-3)]Man(b1-4)GlcNAc(b1-4)[Fuc(a1-6)]GlcNAc
# In short: as §1
# [21] = biological target: Gal(b1-4)GlcNAc(b1-3)Gal(b1-4)GlcNAc(b1-3)Gal(b1-4)GlcNAc(b1-3)Gal(b1-4)GlcNAc(b1-2)Man(a1-3)[Gal(b1-4)GlcNAc(b1-3)Gal(b1-4)GlcNAc(b1-3)Gal(b1-4)GlcNAc(b1-3)Gal(b1-4)GlcNAc(b1-2)Man(a1-6)]Man(b1-4)GlcNAc(b1-4)GlcNAc
# In short: as §1
# [22] = biological target: Gal(b1-4)GlcNAc(b1-3)Gal(b1-4)GlcNAc(b1-3)Gal(b1-4)GlcNAc(b1-3)Gal(b1-4)GlcNAc(b1-2)Man(a1-3)[Gal(b1-4)GlcNAc(b1-3)Gal(b1-4)GlcNAc(b1-3)Gal(b1-4)GlcNAc(b1-3)Gal(b1-4)GlcNAc(b1-2)Man(a1-6)]Man(b1-4)GlcNAc(b1-4)[Fuc(a1-6)]GlcNAc
# In short: as §1
binder,measurement,setting,value
B1,glycan array binding signal (z-score),[1],-0.169
same,glycan array binding signal (z-score),[2],-0.162
same,glycan array binding signal (z-score),[3],-0.095
same,glycan array binding signal (z-score),[4],-0.177
same,glycan array binding signal (z-score),[5],-0.12
same,glycan array binding signal (z-score),[6],-0.103
same,glycan array binding signal (z-score),[7],-0.124
same,glycan array binding signal (z-score),[8],-0.148
same,glycan array binding signal (z-score),[9],-0.191
same,glycan array binding signal (z-score),[10],-0.116
same,glycan array binding signal (z-score),[11],1.67
same,glycan array binding signal (z-score),[12],-0.219
same,glycan array binding signal (z-score),[13],-0.002
same,glycan array binding signal (z-score),[14],-0.127
same,glycan array binding signal (z-score),[15],-0.014
same,glycan array binding signal (z-score),[16],-0.077
same,glycan array binding signal (z-score),[17],-0.087
same,glycan array binding signal (z-score),[18],-0.059
same,glycan array binding signal (z-score),[19],0.05
same,glycan array binding signal (z-score),[20],-0.173
same,glycan array binding signal (z-score),[21],-0.146
same,glycan array binding signal (z-score),[22],-0.057
